From paper PMC8873214, “RIOX1-demethylated cGAS regulates ionizing radiation-elicited DNA repair” (Bone Research, 2022)
Changes are numbered by the printed parent chain. In names and notes the source's numbering stands. These are yes or no findings as the source states them, for the method shown. In cells and extracts the contact can be indirect. Some results given as binding are weak or reduced against the parent protein; the word gives no strength. For some assays here: Where a sequence is shown, tags or fusion partners need not be part of it.

Amino acid sequences for entries named in this document (tags omitted). A change or cut given only in a name is not applied to a line headed by its entry.
UniProt Q8C6L5: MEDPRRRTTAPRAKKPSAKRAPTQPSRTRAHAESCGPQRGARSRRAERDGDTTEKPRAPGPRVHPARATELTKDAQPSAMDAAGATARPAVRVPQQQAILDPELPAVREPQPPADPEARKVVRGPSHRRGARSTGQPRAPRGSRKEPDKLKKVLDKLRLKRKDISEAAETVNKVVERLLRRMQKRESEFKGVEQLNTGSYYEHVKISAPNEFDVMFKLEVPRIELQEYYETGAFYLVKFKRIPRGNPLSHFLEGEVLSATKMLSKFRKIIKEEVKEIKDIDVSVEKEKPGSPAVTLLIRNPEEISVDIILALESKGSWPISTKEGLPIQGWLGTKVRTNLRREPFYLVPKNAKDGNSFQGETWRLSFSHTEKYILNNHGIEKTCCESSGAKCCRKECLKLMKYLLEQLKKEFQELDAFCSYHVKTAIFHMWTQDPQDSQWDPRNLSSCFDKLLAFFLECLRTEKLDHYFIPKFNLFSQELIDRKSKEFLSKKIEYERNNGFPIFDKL
UniProt P11103: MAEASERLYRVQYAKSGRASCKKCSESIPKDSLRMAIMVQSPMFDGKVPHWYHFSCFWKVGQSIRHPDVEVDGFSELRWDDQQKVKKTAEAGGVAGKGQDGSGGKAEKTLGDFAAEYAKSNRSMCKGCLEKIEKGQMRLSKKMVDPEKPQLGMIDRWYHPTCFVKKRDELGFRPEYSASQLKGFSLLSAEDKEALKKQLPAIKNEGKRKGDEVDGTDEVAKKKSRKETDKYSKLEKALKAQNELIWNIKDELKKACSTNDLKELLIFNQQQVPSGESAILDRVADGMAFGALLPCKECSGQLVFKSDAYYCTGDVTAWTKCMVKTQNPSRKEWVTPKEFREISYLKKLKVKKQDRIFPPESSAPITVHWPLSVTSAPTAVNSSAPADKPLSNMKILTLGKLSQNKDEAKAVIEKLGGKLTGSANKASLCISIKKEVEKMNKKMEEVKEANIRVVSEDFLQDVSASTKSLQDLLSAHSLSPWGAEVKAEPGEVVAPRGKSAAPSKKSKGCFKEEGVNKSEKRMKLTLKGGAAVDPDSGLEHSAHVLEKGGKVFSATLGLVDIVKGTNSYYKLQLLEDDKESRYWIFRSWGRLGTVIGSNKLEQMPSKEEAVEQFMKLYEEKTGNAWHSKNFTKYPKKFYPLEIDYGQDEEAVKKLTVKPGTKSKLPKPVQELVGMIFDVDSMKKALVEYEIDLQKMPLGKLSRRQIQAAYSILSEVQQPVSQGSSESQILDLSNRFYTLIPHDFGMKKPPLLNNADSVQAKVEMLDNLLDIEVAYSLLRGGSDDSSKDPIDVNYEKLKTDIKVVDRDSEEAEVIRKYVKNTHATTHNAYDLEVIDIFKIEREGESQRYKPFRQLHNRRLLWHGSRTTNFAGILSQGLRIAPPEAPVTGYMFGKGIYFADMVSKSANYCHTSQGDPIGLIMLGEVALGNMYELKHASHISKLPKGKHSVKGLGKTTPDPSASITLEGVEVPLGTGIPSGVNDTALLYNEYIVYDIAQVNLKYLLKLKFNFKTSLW
UniProt Q8CD15: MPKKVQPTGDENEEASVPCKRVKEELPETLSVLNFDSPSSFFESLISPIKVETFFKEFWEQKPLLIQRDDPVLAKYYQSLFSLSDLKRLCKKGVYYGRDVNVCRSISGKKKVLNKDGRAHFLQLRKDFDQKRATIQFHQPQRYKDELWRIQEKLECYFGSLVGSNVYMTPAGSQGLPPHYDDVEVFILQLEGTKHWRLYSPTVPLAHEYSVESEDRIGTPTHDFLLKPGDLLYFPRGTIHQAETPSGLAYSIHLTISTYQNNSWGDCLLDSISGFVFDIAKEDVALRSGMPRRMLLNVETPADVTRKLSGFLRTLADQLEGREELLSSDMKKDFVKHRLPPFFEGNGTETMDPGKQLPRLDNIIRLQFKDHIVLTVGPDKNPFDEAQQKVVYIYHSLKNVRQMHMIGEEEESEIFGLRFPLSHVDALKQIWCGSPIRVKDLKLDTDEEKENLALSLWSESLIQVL

B1: SAGA complex-associated factor 29 (SGF29), endogenous (protein, UniProt Q9DA08 1-293)
chain: MALVSADSRIAELLTELHQLIKQTQEERSRSEHNLVNIQKTHERMQTENKISPYYRTKLRGLYTTAKTDAEAECNILRKALDKIAEIKSLLEERRIAAKIAGLYNDSEPPRKTMRRGVLMTLLQQSAMTLPLWIGKPGDKPPPLCGAIPASGDYVAKPGDKVAARVKAVEGDEQWILAEVVSYSHATNKYEVDDIDEEGKERHTLSRRRIIPLPQWKANPETDPEALFQKEQLVLALYPQTTCFYRALIHTPPQRPQDDYSVLFEDTSYADGYSPPLNVAQRYVVACKEPKKK
B2: WT HA-SGF29 (protein, UniProt Q9DA08 1-293)
chain: B1 chain
B3: ribosomal oxygenase 1 (RIOX1), endogenous (protein, UniProt Q9JJF3 1-603)
chain: MDELPNGNGAALLKRGRGRRRRHPQSQPRGASVLALPLRPRKIRRHRKSAAASRVAALRARALRSEDSDSKVAVASVRGKRKRPAELLEASRSAEPRPVSARPRSASATLPSRVEGWAALSRNLGTAAPPPPGSHADEPGRPRASPLQQVLTELNGIPSSRRRAARLFEWLLAPLPPDHFYRRLWEREAVLVRRQDRSYYEGLFSTADLDSMLRYEDVQFGQHLDAARYVDGRRETLNPPGRALPAAAWSLYRAGCSLRLLCPQAFSPTVWQFLAVLQEQFGSMAGSNVYLTPPDSQGFAPHYDDIEAFVLQLEGRKLWRVYRPRDPSEELALTSSPNFSQEDLGEPVLQTVLEPGDLLYFPRGFIHQAECQDGVHSLHLTLSTYQRNTWGDFLEAVLPLAVQAAIEENVEFRRGLPRDFMDYMGAQHSDSKDPRRTAFMEKVRVLVARLGHFAPVDAVADQRAKDFIHDSLPPVLTDRERALSVHGLPVRWEAGEPVNVGAQLTTETQVHMLQDGVARLVGEGGRLFLYHTVENSRVYHLEEPKCLEIHPQQADAMELLLRSYPEFVRVGDLPCDSVEDQLSLATMLYDKGLLLTKTPLVPS
B4: SET domain-containing lysine methyltransferase 7 (SET7), endogenous (enzyme, UniProt Q8VHL1 1-366)
chain: MDSDDEVVEEAVEGHLDDDGLPHGFCTVTYSSTDRFEGNFVHGEKNGRGKFFFFDGSTLEGYYVDDALQGQGVYTYEDGGVLQGTYVDGELNGPAQEYDSDGRLIFKGQYKDNNRHGVCWIHYPDGGSLVGEVNEDGEMTGEKIAYVYPDQRTALYGKFIDGEMLEGKLATLMATEEGRPHFEVTSGSSVYHFDKSTSSCISSDALLPDPYESERVYVADSLISSAGEGLFSKVAVGPNTVMSFYNGVRITHQEVDSRDWALNGNTLSLDEETVIDVPEPYNHVSKYCASLGHKANHSFTPNCVYDLFVHPRFGPIKCIRTLRAVEAEEELTVAYGYDHSPPGKSGPEAPEWYQVELKAFQATQQK
B5: HA-SGF29 D194A/D196A (protein, UniProt Q9DA08 1-293)
chain: B1 chain with D194A, D196A

Experiments:
Flag-cGAS K491R (mouse) [1] = target: Flag-cGAS K491R (mouse) (UniProt Q8C6L5); assay: co-IP; immunoprecipitation of Flag-cGAS from 32D Cl3 cells treated with 10 Gy ionizing radiation, with or without Riox1 shRNA, Sgf29 shRNA and HA-Sgf29 WT or mutant; immunoprecipitates treated with excess PARG before immunoblot
WT Flag-cGAS (mouse) [2] = target: WT Flag-cGAS (mouse) (UniProt Q8C6L5); assay: as above
His-Timeless (mouse) = target: T1, His-Timeless (mouse) (UniProt Q9R1X4); assay: pull-down; Ni-NTA pulldown of His-Timeless from 32D Cl3 cells treated with 10 Gy ionizing radiation, with or without Riox1 shRNA, Flag-Cgas WT or K491R, HA-Sgf29 WT or mutant; precipitates treated with excess PARG before immunoblot
T1 sequence: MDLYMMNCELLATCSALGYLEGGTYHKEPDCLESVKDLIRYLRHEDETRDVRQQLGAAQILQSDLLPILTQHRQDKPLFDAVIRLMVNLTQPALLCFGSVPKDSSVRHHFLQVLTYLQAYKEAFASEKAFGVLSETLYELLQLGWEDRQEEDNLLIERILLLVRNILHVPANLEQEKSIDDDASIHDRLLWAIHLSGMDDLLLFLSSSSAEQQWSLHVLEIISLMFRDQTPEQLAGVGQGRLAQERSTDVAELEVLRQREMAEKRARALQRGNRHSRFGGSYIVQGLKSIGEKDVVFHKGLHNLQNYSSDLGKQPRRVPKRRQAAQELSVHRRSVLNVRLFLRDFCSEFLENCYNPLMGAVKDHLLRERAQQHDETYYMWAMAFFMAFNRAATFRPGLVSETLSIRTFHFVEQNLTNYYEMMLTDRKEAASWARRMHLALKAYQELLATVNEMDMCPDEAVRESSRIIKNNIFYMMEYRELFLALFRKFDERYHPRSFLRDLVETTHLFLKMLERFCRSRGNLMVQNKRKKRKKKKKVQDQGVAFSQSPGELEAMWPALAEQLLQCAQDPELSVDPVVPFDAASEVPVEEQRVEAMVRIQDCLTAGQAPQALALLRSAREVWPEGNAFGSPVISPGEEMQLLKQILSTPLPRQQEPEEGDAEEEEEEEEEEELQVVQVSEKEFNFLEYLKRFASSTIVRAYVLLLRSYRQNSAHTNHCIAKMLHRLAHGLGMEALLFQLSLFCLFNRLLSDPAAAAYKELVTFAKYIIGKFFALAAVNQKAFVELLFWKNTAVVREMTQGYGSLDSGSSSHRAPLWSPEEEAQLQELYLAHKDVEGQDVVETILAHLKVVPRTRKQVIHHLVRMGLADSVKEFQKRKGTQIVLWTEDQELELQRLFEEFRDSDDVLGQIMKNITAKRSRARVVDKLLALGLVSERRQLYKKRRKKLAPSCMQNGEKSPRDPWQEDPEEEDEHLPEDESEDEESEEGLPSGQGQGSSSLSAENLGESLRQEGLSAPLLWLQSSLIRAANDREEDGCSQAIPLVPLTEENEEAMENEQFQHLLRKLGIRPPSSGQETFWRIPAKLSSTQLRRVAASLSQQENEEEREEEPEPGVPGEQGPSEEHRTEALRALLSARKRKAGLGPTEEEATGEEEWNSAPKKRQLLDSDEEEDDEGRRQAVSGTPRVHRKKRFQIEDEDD

[3] = target: cyclic GMP-AMP synthase (cGAS), endogenous (mouse (endogenous in 32D Cl3 and FDC-P1)) (UniProt Q8C6L5); assay: co-IP; endogenous proteins, 32D Cl3 and FDC-P1 cell lysates; immunoblot; for SGF29 cells with or without Riox1 shRNAs
Flag-cGAS K491R (mouse) [4] = target: Flag-cGAS K491R (mouse) (UniProt Q8C6L5); assay: co-IP; immunoprecipitation from 32D Cl3 cells transduced with Riox1 shRNA, Flag-Cgas WT or K491R, HA-Sgf29 WT or D194A/D196A; immunoblot
WT Flag-cGAS (mouse) [5] = target: WT Flag-cGAS (mouse) (UniProt Q8C6L5); assay: as above

| Molecule | binding [3] | binding (WT Flag-cGAS (mouse) [5]) | further results |
| --- | --- | --- | --- |
| poly(ADP-ribose) polymerase 1 (PARP1), endogenous (from UniProt P11103 1-1013) (enzyme) |  |  | binding (Flag-cGAS K491R (mouse) [1]): binds; binding (WT Flag-cGAS (mouse) [2]): binds; binding (His-Timeless (mouse)): binds |
| RIOX2, endogenous (from UniProt Q8CD15 1-465) | no binding |  |  |
| B1 | binds | binds | binding (Flag-cGAS K491R (mouse) [4]): no binding |
| B2 |  | binds |  |
| B3 | binds |  |  |
| B4 | binds |  |  |
| B5 |  | no binding |  |
